# The supplement of paper PMC8728848
# The other results are listed elsewhere or left out.
# B1: Gal 4 (Homo sapiens), Q8K419 (protein)
# chain: MAYVPAPGYQPTYNPTLPYKRPIPGGLSVGMSVYIQGMAKENMRRFHVNFAVGQDDGADVAFHFNPRFDGWDKVVFNTMQSGQWGKEEKKKSMPFQKGKHFELVFMVMPEHYKVVVNGNSFYEYGHRLPVQMVTHLQVDGDLELQSINFLGGQPAAAPYPGAMTIPAYPAGSPGYNPPQMNTLPVMTGPPVFNPRVPYVGALQGGLTVRRTIIIKGYVLPTARNFVINFKVGSSGDIALHLNPRIGDSVVRNSFMNGSWGAEERKVAYNPFGPGQFFDLSIRCGMDRFKVFANGQHLFDFSHRFQAFQMVDTLEINGDITLSYVQI
# Assays:
# Experiment in all cases: glycan array binding signal (z-score within array); higher = stronger binding
# Conditions in all cases: glycan notation: IUPAC condensed, linker removed
# [1] = target: Neu5Ac(a2-3)Gal6S(b1-4)GlcNAc
# Summary of the method: (§1)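 Glycan array data came from 3228 arrays in the Consortium for Functional Glycomics database, and only arrays with an available protein sequence were kept. Glycan names were put into IUPAC-condensed notation, and columns mapping to the same glycan were averaged. The binding signal is a within-array Z-score, averaged across arrays of one protein sequence run at different concentrations or buffers and across linkers. A negative Z-score can be read as non-binding.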
# [2] = target: Neu5Ac(a2-3)Gal6S(b1-4)[Fuc(a1-3)]GlcNAc
# Summary of the method: as §1
# Neu5Ac(a2-3)GalNAc = target: Neu5Ac(a2-3)GalNAc
# Summary of the method: as §1
# [3] = target: Neu5Ac(a2-3)GalNAc(b1-4)GlcNAc
# Summary of the method: as §1
# [4] = target: Neu5Ac(a2-3)[GalNAc(b1-4)]Gal(b1-4)Glc
# Summary of the method: as §1
# [5] = target: Neu5Ac(a2-3)[GalNAc(b1-4)]Gal(b1-4)GlcNAc
# Summary of the method: as §1
# [6] = target: Neu5Ac(a2-3)[GalNAc(b1-4)]Gal(b1-4)GlcNAc(b1-3)GalNAc
# Summary of the method: as §1
# [7] = target: Neu5Ac(a2-3)[Neu5Ac(a2-6)]GalNAc
# Summary of the method: as §1
# Neu5Ac(a2-6)Gal = target: Neu5Ac(a2-6)Gal
# Summary of the method: as §1
# [8] = target: Neu5Ac(a2-6)Gal(b1-3)GlcNAc(b1-3)[Gal(b1-4)GlcNAc(b1-6)]Gal(b1-4)Glc
# Summary of the method: as §1
# Neu5Ac(a2-6)Gal(b1-4)Glc = target: Neu5Ac(a2-6)Gal(b1-4)Glc
# Summary of the method: as §1
# [9] = target: Neu5Ac(a2-6)Gal(b1-4)GlcNAc
# Summary of the method: as §1
# [10] = target: Neu5Ac(a2-6)Gal(b1-4)GlcNAc(b1-2)Man(a1-3)Man(b1-4)GlcNAc(b1-4)GlcNAc
# Summary of the method: as §1
# [11] = target: Neu5Ac(a2-6)Gal(b1-4)GlcNAc(b1-2)Man(a1-3)[Gal(b1-4)GlcNAc(b1-2)Man(a1-6)]Man(b1-4)GlcNAc(b1-4)GlcNAc
# Summary of the method: as §1
# [12] = target: Neu5Ac(a2-6)Gal(b1-4)GlcNAc(b1-2)Man(a1-3)[GlcNAc(b1-2)Man(a1-6)]Man(b1-4)GlcNAc(b1-4)GlcNAc
# Summary of the method: as §1
# [13] = target: Neu5Ac(a2-6)Gal(b1-4)GlcNAc(b1-2)Man(a1-3)[GlcNAc(b1-2)Man(b1-4)GlcNAc(b1-2)Man(a1-6)]Man(b1-4)GlcNAc(b1-4)GlcNAc
# Summary of the method: as §1
# [14] = target: Neu5Ac(a2-6)Gal(b1-4)GlcNAc(b1-2)Man(a1-3)[Man(a1-6)]Man(b1-4)GlcNAc(b1-4)GlcNAc
# Summary of the method: as §1
# [15] = target: Neu5Ac(a2-6)Gal(b1-4)GlcNAc(b1-2)Man(a1-3)[Neu5Ac(a2-6)Gal(b1-4)GlcNAc(b1-2)Man(a1-6)]Man(b1-4)GlcNAc(b1-4)GlcNAc
# Summary of the method: as §1
# [16] = target: Neu5Ac(a2-6)Gal(b1-4)GlcNAc(b1-2)Man(a1-3)[Neu5Ac(a2-6)Gal(b1-4)GlcNAc(b1-2)Man(a1-6)]Man(b1-4)GlcNAc(b1-4)[Fuc(a1-6)]GlcNAc
# Summary of the method: as §1
# [17] = target: Neu5Ac(a2-6)Gal(b1-4)GlcNAc(b1-2)Man(a1-6)Man(b1-4)GlcNAc(b1-4)GlcNAc
# Summary of the method: as §1
# [18] = target: Neu5Ac(a2-6)Gal(b1-4)GlcNAc(b1-2)Man(a1-6)[Gal(b1-4)GlcNAc(b1-2)Man(a1-3)]Man(b1-4)GlcNAc(b1-4)GlcNAc
# Summary of the method: as §1
# [19] = target: Neu5Ac(a2-6)Gal(b1-4)GlcNAc(b1-2)Man(a1-6)[GlcNAc(b1-2)Man(a1-3)]Man(b1-4)GlcNAc(b1-4)GlcNAc
# Summary of the method: as §1
# [20] = target: Neu5Ac(a2-6)Gal(b1-4)GlcNAc(b1-2)Man(a1-6)[Man(a1-3)]Man(b1-4)GlcNAc(b1-4)GlcNAc
# Summary of the method: as §1
# [21] = target: Neu5Ac(a2-6)Gal(b1-4)GlcNAc(b1-3)Gal(b1-3)GlcNAc
# Summary of the method: as §1
# [22] = target: Neu5Ac(a2-6)Gal(b1-4)GlcNAc(b1-3)Gal(b1-4)GlcNAc
# Summary of the method: as §1
# [23] = target: Neu5Ac(a2-6)Gal(b1-4)GlcNAc(b1-3)Gal(b1-4)GlcNAc(b1-3)Gal(b1-4)GlcNAc
# Summary of the method: as §1
# [24] = target: Neu5Ac(a2-6)Gal(b1-4)GlcNAc(b1-3)Gal(b1-4)[Fuc(a1-3)]GlcNAc(b1-3)Gal(b1-4)[Fuc(a1-3)]GlcNAc
# Summary of the method: as §1
# [25] = target: Neu5Ac(a2-6)Gal(b1-4)GlcNAc(b1-3)GalNAc
# Summary of the method: as §1
# [26] = target: Neu5Ac(a2-6)Gal(b1-4)GlcNAc(b1-3)[Neu5Ac(a2-6)Gal(b1-4)GlcNAc(b1-6)]GalNAc
# Summary of the method: as §1
# [27] = target: Neu5Ac(a2-6)Gal(b1-4)GlcNAc(b1-6)GalNAc
# Summary of the method: as §1
# [28] = target: Neu5Ac(a2-6)Gal(b1-4)GlcNAc(b1-6)[Gal(b1-3)GlcNAc(b1-3)]Gal(b1-4)Glc
# Summary of the method: as §1
# [29] = target: Neu5Ac(a2-6)Gal(b1-4)GlcNAc6S
# Summary of the method: as §1
# Neu5Ac(a2-6)GalNAc = target: Neu5Ac(a2-6)GalNAc
# Summary of the method: as §1
# [30] = target: Neu5Ac(a2-6)GalNAc(b1-4)GlcNAc
# Summary of the method: as §1
# [31] = target: Neu5Ac(a2-6)GalNAc(b1-4)GlcNAc6S
# Summary of the method: as §1
# [32] = target: Neu5Ac(a2-6)GlcNAc(b1-4)GlcNAc
# Summary of the method: as §1
# [33] = target: Neu5Ac(a2-6)GlcNAc(b1-4)GlcNAc(b1-4)GlcNAc
# Summary of the method: as §1
# Neu5Ac(a2-8)Neu5Ac = target: Neu5Ac(a2-8)Neu5Ac
# Summary of the method: as §1
# [34] = target: Neu5Ac(a2-8)Neu5Ac(a2-3)Gal(b1-3)GalNAc(b1-4)[Neu5Ac(a2-8)Neu5Ac(a2-3)]Gal(b1-4)Glc
# Summary of the method: as §1
# [35] = target: Neu5Ac(a2-8)Neu5Ac(a2-3)Gal(b1-4)Glc
# Summary of the method: as §1
# [36] = target: Neu5Ac(a2-8)Neu5Ac(a2-3)[Gal(b1-3)GalNAc(b1-4)]Gal(b1-4)Glc
# Summary of the method: as §1
# [37] = target: Neu5Ac(a2-8)Neu5Ac(a2-3)[GalNAc(b1-4)]Gal(b1-4)Glc
# Summary of the method: as §1
# [38] = target: Neu5Ac(a2-8)Neu5Ac(a2-8)Neu5Ac
# Summary of the method: as §1
# [39] = target: Neu5Ac(a2-8)Neu5Ac(a2-8)Neu5Ac(a2-3)Gal(b1-4)Glc
# Summary of the method: as §1
# [40] = target: Neu5Ac(a2-8)Neu5Ac(a2-8)Neu5Ac(a2-3)[GalNAc(b1-4)]Gal(b1-4)Glc
# Summary of the method: as §1
# [41] = target: Neu5Ac(a2-8)Neu5Ac(a2-8)Neu5Ac(a2-8)Neu5Ac(a2-3)[GalNAc(b1-4)]Gal(b1-4)Glc
# Summary of the method: as §1
# [42] = target: Neu5Ac(b2-6)Gal(b1-4)GlcNAc
# Summary of the method: as §1
# Neu5Ac(b2-6)GalNAc = target: Neu5Ac(b2-6)GalNAc
# Summary of the method: as §1
# [43] = target: Neu5Ac9Ac(a2-3)Gal(b1-3)GlcNAc
# Summary of the method: as §1
# [44] = target: Neu5Ac9Ac(a2-3)Gal(b1-4)GlcNAc
# Summary of the method: as §1
# [45] = target: Neu5Ac9Ac(a2-6)Gal(b1-4)GlcNAc
# Summary of the method: as §1
# [46] = target: Neu5Gc(a2-3)Gal(b1-3)GlcNAc
# Summary of the method: as §1
# [47] = target: Neu5Gc(a2-3)Gal(b1-3)[Fuc(a1-4)]GlcNAc
# Summary of the method: as §1
# Neu5Gc(a2-3)Gal(b1-4)Glc = target: Neu5Gc(a2-3)Gal(b1-4)Glc
# Summary of the method: as §1
# [48] = target: Neu5Gc(a2-3)Gal(b1-4)GlcNAc
# Summary of the method: as §1
# [49] = target: Neu5Gc(a2-3)Gal(b1-4)[Fuc(a1-3)]GlcNAc
# Summary of the method: as §1
# [50] = target: Neu5Gc(a2-6)Gal(b1-4)GlcNAc
# Summary of the method: as §1
# Neu5Gc(a2-6)GalNAc = target: Neu5Gc(a2-6)GalNAc
# Summary of the method: as §1
# [51] = target: Neu5Gc(b2-6)Gal(b1-4)GlcNAc
# Summary of the method: as §1
binder,measurement,setting,value
B1,glycan array binding signal (z-score),[1],-0.201
same,glycan array binding signal (z-score),[2],-0.207
same,glycan array binding signal (z-score),Neu5Ac(a2-3)GalNAc,-0.203
same,glycan array binding signal (z-score),[3],-0.204
same,glycan array binding signal (z-score),[4],-0.203
same,glycan array binding signal (z-score),[5],-0.2
same,glycan array binding signal (z-score),[6],-0.147
same,glycan array binding signal (z-score),[7],-0.209
same,glycan array binding signal (z-score),Neu5Ac(a2-6)Gal,-0.196
same,glycan array binding signal (z-score),[8],-0.198
same,glycan array binding signal (z-score),Neu5Ac(a2-6)Gal(b1-4)Glc,-0.196
same,glycan array binding signal (z-score),[9],-0.202
same,glycan array binding signal (z-score),[10],-0.205
same,glycan array binding signal (z-score),[11],-0.198
same,glycan array binding signal (z-score),[12],-0.203
same,glycan array binding signal (z-score),[13],-0.19
same,glycan array binding signal (z-score),[14],-0.236
same,glycan array binding signal (z-score),[15],-0.187
same,glycan array binding signal (z-score),[16],-0.396
same,glycan array binding signal (z-score),[17],-0.204
same,glycan array binding signal (z-score),[18],-0.2
same,glycan array binding signal (z-score),[19],-0.202
same,glycan array binding signal (z-score),[20],-0.204
same,glycan array binding signal (z-score),[21],0.677
same,glycan array binding signal (z-score),[22],-0.121
same,glycan array binding signal (z-score),[23],-0.062
same,glycan array binding signal (z-score),[24],-0.206
same,glycan array binding signal (z-score),[25],-0.198
same,glycan array binding signal (z-score),[26],-0.21
same,glycan array binding signal (z-score),[27],-0.211
same,glycan array binding signal (z-score),[28],-0.196
same,glycan array binding signal (z-score),[29],-0.203
same,glycan array binding signal (z-score),Neu5Ac(a2-6)GalNAc,-0.201
same,glycan array binding signal (z-score),[30],-0.207
same,glycan array binding signal (z-score),[31],-0.207
same,glycan array binding signal (z-score),[32],-0.205
same,glycan array binding signal (z-score),[33],-0.208
same,glycan array binding signal (z-score),Neu5Ac(a2-8)Neu5Ac,-0.203
same,glycan array binding signal (z-score),[34],-0.331
same,glycan array binding signal (z-score),[35],-0.204
same,glycan array binding signal (z-score),[36],-0.201
same,glycan array binding signal (z-score),[37],-0.205
same,glycan array binding signal (z-score),[38],-0.207
same,glycan array binding signal (z-score),[39],-0.203
same,glycan array binding signal (z-score),[40],-0.178
same,glycan array binding signal (z-score),[41],-0.197
same,glycan array binding signal (z-score),[42],-0.208
same,glycan array binding signal (z-score),Neu5Ac(b2-6)GalNAc,-0.196
same,glycan array binding signal (z-score),[43],-0.197
same,glycan array binding signal (z-score),[44],-0.189
same,glycan array binding signal (z-score),[45],-0.2
same,glycan array binding signal (z-score),[46],-0.189
same,glycan array binding signal (z-score),[47],-0.208
same,glycan array binding signal (z-score),Neu5Gc(a2-3)Gal(b1-4)Glc,-0.186
same,glycan array binding signal (z-score),[48],-0.201
same,glycan array binding signal (z-score),[49],-0.204
same,glycan array binding signal (z-score),[50],-0.191
same,glycan array binding signal (z-score),Neu5Gc(a2-6)GalNAc,-0.196
same,glycan array binding signal (z-score),[51],-0.201
